# Reference: the supplement of paper PMC8728848
# This is one part of the list.
# Experiments:
# Experiment in all cases: glycan array binding signal (z-score within array); higher = stronger binding
# Settings in all cases: glycan notation: IUPAC condensed, linker removed
# [1] = target: Fuc(a1-2)Gal
# Outline: (§1)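 Arrays were curated from the Consortium for Functional Glycomics database, 3228 in total, and kept only where the protein sequence was available. Binding is expressed as a within-array Z-score. This score was averaged across arrays of the same protein sequence at different concentrations or buffers and across linkers, and negative values can be read as non-binding.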
# [2] = target: Fuc(a1-2)Gal(b1-3)GalNAc
# Outline: as §1
# [3] = target: Fuc(a1-2)Gal(b1-3)GalNAc(a1-3)[Fuc(a1-2)]Gal(b1-4)Glc
# Outline: as §1
# [4] = target: Fuc(a1-2)Gal(b1-3)GalNAc(a1-3)[Fuc(a1-2)]Gal(b1-4)GlcNAc
# Outline: as §1
# [5] = target: Fuc(a1-2)Gal(b1-3)GalNAc(b1-3)Gal
# Outline: as §1
# [6] = target: Fuc(a1-2)Gal(b1-3)GalNAc(b1-3)Gal(a1-4)Gal(b1-4)Glc
# Outline: as §1
# [7] = target: Fuc(a1-2)Gal(b1-3)GalNAc(b1-4)[Neu5Ac(a2-3)]Gal(b1-4)Glc
# Outline: as §1
# [8] = target: Fuc(a1-2)Gal(b1-3)GlcNAc
# Outline: as §1
# [9] = target: Fuc(a1-2)Gal(b1-3)GlcNAc(b1-2)Man(a1-3)[Fuc(a1-2)Gal(b1-3)GlcNAc(b1-2)Man(a1-6)]Man(b1-4)GlcNAc(b1-4)GlcNAc
# Outline: as §1
# [10] = target: Fuc(a1-2)Gal(b1-3)GlcNAc(b1-2)Man(a1-3)[Fuc(a1-2)Gal(b1-3)GlcNAc(b1-2)Man(a1-6)]Man(b1-4)GlcNAc(b1-4)[Fuc(a1-6)]GlcNAc
# Outline: as §1
# [11] = target: Fuc(a1-2)Gal(b1-3)GlcNAc(b1-3)Gal(b1-4)Glc
# Outline: as §1
# [12] = target: Fuc(a1-2)Gal(b1-3)GlcNAc(b1-3)GalNAc
# Outline: as §1
# [13] = target: Fuc(a1-2)Gal(b1-3)GlcNAc(b1-3)[Fuc(a1-2)Gal(b1-3)GlcNAc(b1-6)]GalNAc
# Outline: as §1
# [14] = target: Fuc(a1-2)Gal(b1-3)GlcNAc(b1-3)[Gal(b1-4)GlcNAc(b1-6)]Gal(b1-4)Glc
# Outline: as §1
# [15] = target: Fuc(a1-2)Gal(b1-3)GlcNAc(b1-3)[Neu5Ac(a2-6)Gal(b1-4)GlcNAc(b1-6)]Gal(b1-4)Glc
# Outline: as §1
# [16] = target: Fuc(a1-2)Gal(b1-3)GlcNAc6S
# Outline: as §1
# [17] = target: Fuc(a1-2)Gal(b1-3)[Fuc(a1-4)]GlcNAc
# Outline: as §1
# [18] = target: Fuc(a1-2)Gal(b1-3)[Fuc(a1-4)]GlcNAc(b1-2)Man(a1-3)[Fuc(a1-2)Gal(b1-3)[Fuc(a1-4)]GlcNAc(b1-2)Man(a1-3)]Man(b1-4)GlcNAc(b1-4)GlcNAc
# Outline: as §1
# [19] = target: Fuc(a1-2)Gal(b1-3)[Fuc(a1-4)]GlcNAc(b1-2)Man(a1-3)[Fuc(a1-2)Gal(b1-3)[Fuc(a1-4)]GlcNAc(b1-2)Man(a1-6)]Man(b1-4)GlcNAc(b1-4)[Fuc(a1-6)]GlcNAc(b1-4)[Fuc(a1-6)]GlcNAc
# Outline: as §1
# [20] = target: Fuc(a1-2)Gal(b1-3)[Fuc(a1-4)]GlcNAc(b1-3)[Fuc(a1-3)[Gal(b1-4)]GlcNAc(b1-6)]Gal(b1-4)Glc
# Outline: as §1
# [21] = target: Fuc(a1-2)Gal(b1-3)[Fuc(a1-4)]GlcNAc(b1-3)[Gal(b1-4)GlcNAc(b1-6)]Gal(b1-4)Glc
# Outline: as §1
# [22] = target: Fuc(a1-2)Gal(b1-4)Glc
# Outline: as §1
# [23] = target: Fuc(a1-2)Gal(b1-4)Glc6S
# Outline: as §1
# [24] = target: Fuc(a1-2)Gal(b1-4)GlcNAc
# Outline: as §1
# [25] = target: Fuc(a1-2)Gal(b1-4)GlcNAc(b1-2)Man
# Outline: as §1
# [26] = target: Fuc(a1-2)Gal(b1-4)GlcNAc(b1-2)Man(a1-3)[Fuc(a1-2)Gal(b1-4)GlcNAc(b1-2)Man(a1-6)]Man(b1-4)GlcNAc(b1-4)GlcNAc
# Outline: as §1
# [27] = target: Fuc(a1-2)Gal(b1-4)GlcNAc(b1-2)Man(a1-3)[Fuc(a1-2)Gal(b1-4)GlcNAc(b1-2)Man(a1-6)]Man(b1-4)GlcNAc(b1-4)[Fuc(a1-6)]GlcNAc
# Outline: as §1
# [28] = target: Fuc(a1-2)Gal(b1-4)GlcNAc(b1-2)[Fuc(a1-2)Gal(b1-4)GlcNAc(b1-4)]Man(a1-3)[Fuc(a1-2)Gal(b1-4)GlcNAc(b1-2)Man(a1-6)]Man(b1-4)GlcNAc(b1-4)GlcNAc
# Outline: as §1
# [29] = target: Fuc(a1-2)Gal(b1-4)GlcNAc(b1-3)Gal(b1-4)GlcNAc
# Outline: as §1
# [30] = target: Fuc(a1-2)Gal(b1-4)GlcNAc(b1-3)Gal(b1-4)GlcNAc(b1-2)Man(a1-3)[Fuc(a1-2)Gal(b1-4)GlcNAc(b1-3)Gal(b1-4)GlcNAc(b1-2)Man(a1-6)]Man(b1-4)GlcNAc(b1-4)GlcNAc
# Outline: as §1
binder,measurement,setting,value
PX14367A-bth-493-35-493 (Bacteroides thetaiotaomicron) (protein) VSSDQVAVAGNAERLFNGAWYNLFEYGTTYANIGYRALQCQDDMMASDVVSRPKYGFNSSYQFNDVAIPSDGRTSFAWYLIYKTIDNCNTAISIKGDSEELRQAQGQALALRAFCYLHLVQHYQFTYLKDKDAPCVPIYTEPTTSGTKPKGKSTVAQVYQQIFDDLNLAQDYLTNYVRKGDGQKFKPNTDVVNGLMARAYLLTGQWGEAAKAAEAARKGYSLMTTTAEYEGFNNISNKEWIWGSPQTLSQSDASYNFYYLDATYVGAYSSFMADPHLMDTFVKGDIRLPLFQWMREGYLGYKKFHMRSDDTADLVLMRSAEMYLIEAEAKVRDGVALDQAVAPLNTLRTARGVGNYDVTGKTKEQVIDEILMERRRELWGEGFGITDVLRNQKAVERMALSEDMQKTEVDCWQEGGSFAKRNPLGHWFLNFPDGKAFSANSSYYLYAIPEKEINANPNL,glycan array binding signal (z-score),[1],-0.135
same,glycan array binding signal (z-score),[2],-0.477
same,glycan array binding signal (z-score),[3],-0.547
same,glycan array binding signal (z-score),[4],-0.426
same,glycan array binding signal (z-score),[5],-0.312
same,glycan array binding signal (z-score),[6],0.208
same,glycan array binding signal (z-score),[7],-0.469
same,glycan array binding signal (z-score),[8],-0.702
same,glycan array binding signal (z-score),[9],2.29
same,glycan array binding signal (z-score),[10],-0.196
same,glycan array binding signal (z-score),[11],-0.473
same,glycan array binding signal (z-score),[12],-0.439
same,glycan array binding signal (z-score),[13],0.845
same,glycan array binding signal (z-score),[14],0.288
same,glycan array binding signal (z-score),[15],-0.361
same,glycan array binding signal (z-score),[16],-0.417
same,glycan array binding signal (z-score),[17],-0.043
same,glycan array binding signal (z-score),[18],-0.095
same,glycan array binding signal (z-score),[19],-0.389
same,glycan array binding signal (z-score),[20],-0.004
same,glycan array binding signal (z-score),[21],-0.403
same,glycan array binding signal (z-score),[22],-0.535
same,glycan array binding signal (z-score),[23],0.408
same,glycan array binding signal (z-score),[24],-0.413
same,glycan array binding signal (z-score),[25],-0.165
same,glycan array binding signal (z-score),[26],2.44
same,glycan array binding signal (z-score),[27],0.806
same,glycan array binding signal (z-score),[28],0.91
same,glycan array binding signal (z-score),[29],-0.336
same,glycan array binding signal (z-score),[30],0.127
